Data taken from US20240392040A1 (AKESO HUIKE SHANGHAI, published 2024).

What was measured:
[1] = target: PD-1 on 293T-PD1 membrane surface (full-length human PD-1 on cells) (human, UniProt Q15116 25-288); assay: cell-based or functional assay
[2] = target: T1, LAG3 on 293T-LAG3 membrane surface (full-length human LAG3 on cells) (human, UniProt P18627 23-525); assay: cell-based or functional assay
T1 sequence (looked up): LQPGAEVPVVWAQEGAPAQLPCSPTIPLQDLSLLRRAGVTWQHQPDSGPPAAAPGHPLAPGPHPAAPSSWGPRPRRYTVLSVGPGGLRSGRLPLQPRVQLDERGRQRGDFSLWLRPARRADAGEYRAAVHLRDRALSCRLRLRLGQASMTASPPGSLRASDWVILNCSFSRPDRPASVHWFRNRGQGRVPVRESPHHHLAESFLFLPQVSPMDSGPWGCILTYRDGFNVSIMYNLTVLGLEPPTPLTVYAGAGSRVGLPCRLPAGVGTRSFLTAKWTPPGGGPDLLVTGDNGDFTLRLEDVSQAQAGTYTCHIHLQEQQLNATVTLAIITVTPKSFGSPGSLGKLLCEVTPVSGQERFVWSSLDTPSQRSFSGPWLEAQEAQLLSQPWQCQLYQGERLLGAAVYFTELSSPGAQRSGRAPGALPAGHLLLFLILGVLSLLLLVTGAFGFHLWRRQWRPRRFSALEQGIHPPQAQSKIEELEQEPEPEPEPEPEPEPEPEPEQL

[3] = target: T2, human PD-1-mFc (human, UniProt Q15116 in part, limits assumed); assay: indirect ELISA, coated human PD-1-mFc
T2 construct: not shown: mouse IgG Fc (mFc)
Description: Then the ELISA plate coated with the antigen was washed once with PBST and then blocked with a PBS solution containing 1% BSA as a blocking solution at 37° C. for 2 h. After blocking, the ELISA plate was washed 3 times with PBST. The ELISA plate containing the test antibodies was incubated at 37° C. for 30 min and then washed 3 times with PBST.
(§1) After incubation, the plate was washed 4 times with PBST, TMB (Neogen, 308177) was added for chromogenesis in the dark for 5 min, and then a stop solution was added to terminate the chromogenic reaction. The ELISA plate was put into an ELISA plate reader immediately, and the OD value of each well in the ELISA plate was read at 450 nm. The data were analyzed and processed by SoftMax Pro 6.2.1.

[4] = target: T3, human LAG3-mFc (human, UniProt P18627 23-450, limits assumed); assay: indirect ELISA, coated human LAG3-mFc
T3 construct: not shown: mouse IgG Fc (mFc)
T3 sequence (looked up): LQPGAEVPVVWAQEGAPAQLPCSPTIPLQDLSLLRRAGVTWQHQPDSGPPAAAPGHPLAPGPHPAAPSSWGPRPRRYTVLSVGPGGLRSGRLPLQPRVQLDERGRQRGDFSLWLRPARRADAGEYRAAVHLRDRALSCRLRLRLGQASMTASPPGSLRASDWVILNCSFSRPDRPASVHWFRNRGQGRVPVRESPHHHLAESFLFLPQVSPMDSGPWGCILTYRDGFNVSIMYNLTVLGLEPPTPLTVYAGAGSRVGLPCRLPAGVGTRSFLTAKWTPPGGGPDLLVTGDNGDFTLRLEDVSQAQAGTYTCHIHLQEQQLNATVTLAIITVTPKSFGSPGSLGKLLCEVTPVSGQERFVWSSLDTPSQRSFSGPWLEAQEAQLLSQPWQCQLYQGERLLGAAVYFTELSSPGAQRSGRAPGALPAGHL
Description: as §1, with “Then the ELISA plate coated with the antigen was washed once with PBST and then blocked with a PBS solution containing 1% BSA as a blocking solution at 37° C. for 2 h. After blocking, the ELISA plate was washed 3 times with PBST. The ELISA plate containing the test antibodies was incubated at 37° C. for 30 min and then washed 3 times with PBST. […] After” for “After”

[5] = target: T4, C1q (UniProt P02745; P02746; P02747); assay: BLI (Fortebio Octet), antibody on FAB2G sensor, C1q in solution
T4 construct: the three subunits are from general knowledge; also called serum complement C1q
Description: The data were analyzed by 1:1 model fitting to obtain affinity constants. The data acquisition software was Fortebio Data Acquisition 7.0, and the data analysis software was Fortebio Data Analysis 7.0.

[6] = target: T5, FcγRIIa_H131 (UniProt P12318 34-218); assay: BLI (Fortebio Octet), FcγRIIa_H131 on NTA sensor, antibody in solution
T5 construct: Construct not described
T5 sequence (looked up): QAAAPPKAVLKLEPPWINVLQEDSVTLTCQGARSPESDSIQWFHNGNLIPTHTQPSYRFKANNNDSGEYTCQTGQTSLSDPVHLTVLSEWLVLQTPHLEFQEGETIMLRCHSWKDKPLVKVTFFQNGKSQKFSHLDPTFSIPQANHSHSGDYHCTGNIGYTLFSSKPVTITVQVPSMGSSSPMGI
Description: (§2) The data were analyzed by 1:1 model fitting to obtain affinity constants.

[7] = target: T6, human PD-1-mFc-Biotin (human, UniProt Q15116 in part, limits assumed, biotin label (site not stated)); assay: competitive ELISA, blocking of PD-1-mFc-Biotin binding to coated human PDL1-mFc
T6 construct: not shown: mouse IgG Fc (mFc)
Description: After incubation, the ELISA plate was blocked with a PBS solution containing 1% BSA at 37° C. for 2 h. After blocking, the plate was washed three times and dried. The antibody was serially diluted on a dilution plate in a 3-fold dilution ratio to achieve 7 concentrations with 80 nM as the starting concentration (at a final concentration of 40 nM), and a blank control was set. […] Then the mixture was incubated at room temperature for 10 min. Then the mixture after reaction was added to the coated ELISA plate, and the ELISA plate was incubated at 37° C. for 30 min. After incubation, the plate was washed three times with PBST and dried. An SA-HRP (KPL, 14-30-00) working solution was added, and the plate was incubated at 37° C. for 30 min. After incubation, the plate was washed four times and dried. Then TMB (Neogen, 308177) was added in the dark for chromogenesis for 5 min, and then a stop solution was added to terminate the chromogenic reaction. The ELISA plate was put into an ELISA plate reader immediately, and the OD value of each well in the ELISA plate was read at 450 nm. The data were analyzed and processed by SoftMax Pro 6.2.1.

[8] = target: T7, FcγRIIIa_F158 (UniProt P08637 in part, limits assumed); assay: BLI (Fortebio Octet), FcγRIIIa_F158 on HIS1K sensor, antibody in solution
T7 construct: Construct not described
Description: as §2

FcγRIIIa_F158, sequence (P08637 17-208 limits assumed): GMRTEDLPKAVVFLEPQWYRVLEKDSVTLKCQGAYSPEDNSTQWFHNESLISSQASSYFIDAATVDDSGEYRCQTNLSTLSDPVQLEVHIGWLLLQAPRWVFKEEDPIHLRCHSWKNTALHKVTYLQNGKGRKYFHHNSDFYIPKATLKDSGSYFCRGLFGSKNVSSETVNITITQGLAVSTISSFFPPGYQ
human PD-1-mFc, sequence (Q15116 25-170 limits assumed): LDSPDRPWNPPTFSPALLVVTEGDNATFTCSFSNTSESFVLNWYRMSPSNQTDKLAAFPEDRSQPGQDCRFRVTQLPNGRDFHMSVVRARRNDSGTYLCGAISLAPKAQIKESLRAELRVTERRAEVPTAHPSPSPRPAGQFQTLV
C1q, sequence (P02745 23-245 limits assumed, chain 1 of 3): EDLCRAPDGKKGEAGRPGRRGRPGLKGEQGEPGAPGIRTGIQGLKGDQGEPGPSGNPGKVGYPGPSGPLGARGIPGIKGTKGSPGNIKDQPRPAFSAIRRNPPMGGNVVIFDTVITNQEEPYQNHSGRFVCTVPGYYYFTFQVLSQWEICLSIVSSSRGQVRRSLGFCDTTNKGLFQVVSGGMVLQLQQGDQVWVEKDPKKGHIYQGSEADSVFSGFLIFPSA
C1q, sequence (P02746 28-253 limits assumed, chain 2 of 3, further chain): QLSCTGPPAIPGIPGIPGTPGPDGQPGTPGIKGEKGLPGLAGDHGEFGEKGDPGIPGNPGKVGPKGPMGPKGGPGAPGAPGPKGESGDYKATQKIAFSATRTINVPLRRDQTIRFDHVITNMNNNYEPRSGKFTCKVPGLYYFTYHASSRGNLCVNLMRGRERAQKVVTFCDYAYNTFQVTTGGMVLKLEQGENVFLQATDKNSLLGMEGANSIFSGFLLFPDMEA
C1q, sequence (P02747 29-245 limits assumed, chain 3 of 3, further chain): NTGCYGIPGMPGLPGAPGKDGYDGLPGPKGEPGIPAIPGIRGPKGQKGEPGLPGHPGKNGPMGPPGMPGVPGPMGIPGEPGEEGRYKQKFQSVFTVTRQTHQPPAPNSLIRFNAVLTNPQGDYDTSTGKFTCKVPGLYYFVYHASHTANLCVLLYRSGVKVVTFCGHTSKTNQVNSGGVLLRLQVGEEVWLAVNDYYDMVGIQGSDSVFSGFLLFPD

- EC50 (nM), luciferase reporter (RLU), Jurkat-NFAT-PD1-LAG3 cells + SEE-treated Raji-PDL1 cells [1]: 16.2 nM
- EC50 (nM), luciferase reporter (RLU), Jurkat-NFAT-PD1-LAG3 cells + SEE-treated Raji-PDL1 cells [2]: 16.2 nM
- EC50 [3]: 0.074 nM
- EC50 [4]: 0.081 nM
- binding result [5]: no binding
- binding result [6]: no binding
- EC50 [7]: 3.46 nM
- binding result [8]: no binding
B1: BS-PL022B (bispecific antibody, human IgG1, kappa)
heavy: QVQLQQWGAGLLKPSETLSLTCAVYGGSISDYYWNWIRQPPGKGLEWIGEINHRGTTNSNPSLKSRVTLSLDTSKNQFSLKLRSVTAADTAVYYCAFGYSDYEYDWFDPWGQGTLVTVSSASTKGPSVFPLAPSSKSTSGGTAALGCLVKDYFPEPVTVSWNSGALTSGVHTFPAVLQSSGLYSLSSVVTVPSSSLGTQTYICNVNHKPSNTKVDKKV[skipping human IgG1 Fc with L234A L235A G237A (EU numbers)]GGGGSGGGGSGGGGSGGGGSEVQLVESGGGLVQPGGSLRLSCAASGFAFSSYDMSWVRQAPGKGLDWVATISGGGRYTYYPDSVKGRFTISRDNSKNNLYLQMNSLRAEDTALYYCANRYGEAWFAYWGQGTLVTVSSGGGGSGGGGSGGGGSGGGGSDIQMTQSPSSMSASVGDRVTFTCRASQDINTYLSWFQQKPGKSPKTLIYRANRLVSGVPSRFSGSGSGQDYTLTISSLQPEDMATYYCLQYDEFPLTFGAGTKLELKR
light: EIVLTQSPATLSLSPGERATLSCRASQTISSYLAWYQQKPGQAPRLLIYDASNRATGIPARFSGSGSGTDFTLTISSLEPEDFAVYYCQQRSNWPITFGQGTNLEIKRTVAAPSVFIFPPSDEQLKSGTASVVCLLNNFYPREAKVQWKVDNALQSGNSQESVTEQDSKDSTYSLSSTLTLSKADYEKHKVYACEVTHQGLSSPVTKSFNRGEC
notes: Morrison form (IgG-scFv): an scFv at the C-terminus of each of the two heavy chains
